Test results published in article PMC11995724, “Antibiotic target discovery by integrated phenotypic and activity-based profiling of electrophilic fragments” (Cell chemical biology, 2025).
The campaign covered roughly 3,200 compounds. About 75 (2%) showed an effect of 50% or more. The list shows a part of the results.

The compounds below were run on T1, S. aureus MSSA476. Conditions: relative growth, OD600, TSB; 25 µM; inhibitor.
T1 construct: MSSA476
Set-up: species or system S. aureus MSSA476 (TSB) or V. cholerae SAD30 (LB); 384-well bacterial growth screen at 25 uM, OD600 relative to DMSO control

SMILES	% of control remaining [%]
N#Cc1cccc(C(NC(=O)CCl)C(F)(F)F)c1 (centres unmarked) [7-N04, 2-chloro-N-[1-(3-cyanophenyl)-2,2,2-trifluoroethyl]acetamide]	114.286
O=C(CCl)Nc1cc(S(=O)(=O)N2CCOCC2)ccc1Cl [6-H03, 2-chloro-N-[2-chloro-5-(morpholine-4-sulfonyl)phenyl]acetamide]	86.3902
COc1ccc([N+](=O)[O-])cc1NC(=O)C(C)Cl (centres unmarked) [5-N14, 2-chloro-N-(2-methoxy-5-nitrophenyl)propanamide]	112.933
O=C(CCl)Nc1ccc(S(=O)(=O)N2CCCC2)cc1 [4-F08, 2-chloro-N-[4-(pyrrolidine-1-sulfonyl)phenyl]acetamide]	96.0457
N#CC(=Cc1ccc(OC(F)F)cc1)C(=O)Nc1cccnc1 [9-K04, 2-cyano-3-[4-(difluoromethoxy)phenyl]-N-(pyridin-3-yl)prop-2-enamide]	118.052
Cl.O=C(CCl)Nc1ncc[nH]1 [6-B03, 2-chloro-N-(1H-imidazol-2-yl)acetamide hydrochloride]	78.1951
CC(C)NC(=O)C(C#N)=Cc1ccc(Cl)c([N+](=O)[O-])c1 [8-J08, 3-(4-chloro-3-nitrophenyl)-2-cyano-N-(propan-2-yl)prop-2-enamide]	107.552
Cc1cc(C(=O)CCl)c(C)n1-c1ccc(OC(F)(F)F)cc1 [10-G04, 2-chloro-1-{2,5-dimethyl-1-[4-(trifluoromethoxy)phenyl]-1H-pyrrol-3-yl}ethan-1-one]	115.313
C=CC(=O)NC1COC(C)C1 (centres unmarked) [1-H17, N-(5-methyloxolan-3-yl)prop-2-enamide]	103.033
C=CC(=O)N1CCC(C(=O)N2CCC(Cc3ncon3)CC2)CC1 [2-J06, 1-(4-{4-[(1,2,4-oxadiazol-3-yl)methyl]piperidine-1-carbonyl}piperidin-1-yl)prop-2-en-1-one]	107.224
CC(Cl)C(=O)N(Cc1cnn(C)c1)c1ccc(F)cc1 (centres unmarked) [6-P11, 2-chloro-N-(4-fluorophenyl)-N-[(1-methyl-1H-pyrazol-4-yl)methyl]propanamide]	97.6585
C=CC(=O)N1CCC(c2ncc(C(=O)O)o2)CC1 [2-G19, 2-[1-(prop-2-enoyl)piperidin-4-yl]-1,3-oxazole-5-carboxylic acid]	116.275
COc1cccc(NC(=O)C(C#N)=Cc2ccc(C#N)cc2)c1 [8-G18, 2-cyano-3-(4-cyanophenyl)-N-(3-methoxyphenyl)prop-2-enamide]	118.174
C=CC(=O)Nc1ccc(C(=O)N2CCC(C(C)C)CC2)cc1 [3-B15, N-{4-[4-(propan-2-yl)piperidine-1-carbonyl]phenyl}prop-2-enamide]	142.447
N#CC(=Cc1cccc2ccccc12)C(=O)NC1CC1 [9-O03, 2-cyano-N-cyclopropyl-3-(naphthalen-1-yl)prop-2-enamide]	109.064
C=CC(=O)N[C@@H](C)c1ccccc1OC [1-K06, N-[(1S)-1-(2-methoxyphenyl)ethyl]prop-2-enamide]	106.549
Cc1cn2c(C=C(C#N)C(=O)Nc3c(C)cccc3C)c(C)nc2s1 [9-N19, 2-cyano-3-{2,6-dimethylimidazo[2,1-b][1,3]thiazol-5-yl}-N-(2,6-dimethylphenyl)prop-2-enamide]	91.985
CC(C)(C)c1ccc(C=C(C#N)C(=O)Nc2ccc(C(=O)O)cc2)cc1 [9-I21, 4-[3-(4-tert-butylphenyl)-2-cyanoprop-2-enamido]benzoic acid]	71.6105
CC1=C(C#N)C(=O)N(C)C(=O)C1=Cc1ccc(-c2ccc(F)cc2)o1 [9-I18, 5-{[5-(4-fluorophenyl)furan-2-yl]methylidene}-1,4-dimethyl-2,6-dioxo-1,2,5,6-tetrahydropyridine-3-carbonitrile]	83.2959
CC(Cl)C(=O)N1CCCC1Cc1cccc(F)c1F (centres unmarked) [7-E19, 2-chloro-1-{2-[(2,3-difluorophenyl)methyl]pyrrolidin-1-yl}propan-1-one]	108.948
CC(Cl)C(=O)N[C@H]1CCO[C@@H]1c1nccn1-c1ccccc1 (mixture of isomers) [7-A12, rac-2-chloro-N-[(2R,3R)-2-(1-phenyl-1H-imidazol-2-yl)oxolan-3-yl]propanamide]	87.5981
C=CC(=O)Nc1ccccc1CCC(N)=O [1-A18, N-[2-(2-carbamoylethyl)phenyl]prop-2-enamide]	117.099

SMILES	% of control remaining [%]
CC(Cl)C(=O)N1CCN(C(=O)CN2C(=O)CCC2=O)CC1 (centres unmarked) [6-B11, 1-{2-[4-(2-chloropropanoyl)piperazin-1-yl]-2-oxoethyl}pyrrolidine-2,5-dione]	89.8049
CCOc1ccccc1NC(=O)C(C#N)=Cc1c(F)cccc1F [8-G21, 2-cyano-3-(2,6-difluorophenyl)-N-(2-ethoxyphenyl)prop-2-enamide]	69.3776
COCC(C)NC(=O)C(C#N)=Cc1cccc(F)c1F (centres unmarked) [9-F09, 2-cyano-3-(2,3-difluorophenyl)-N-(1-methoxypropan-2-yl)prop-2-enamide]	101.873
Cc1cc(C(C)N(Cc2c(C)noc2C)C(=O)CCl)c(C)o1 (centres unmarked) [5-E16, 2-chloro-N-[(3,5-dimethyl-1,2-oxazol-4-yl)methyl]-N-[1-(2,5-dimethylfuran-3-yl)ethyl]acetamide]	102.368
CC(Cl)C(=O)N1CCC(c2nc(C3CC3)no2)(C(F)(F)F)C1 (centres unmarked) [7-K12, 2-chloro-1-[3-(3-cyclopropyl-1,2,4-oxadiazol-5-yl)-3-(trifluoromethyl)pyrrolidin-1-yl]propan-1-one]	83.8305
CNC(=O)c1ccc(O)c(NC(=O)CCl)c1 [5-C10, 3-(2-chloroacetamido)-4-hydroxy-N-methylbenzamide]	124.59
C=CC(=O)N1CCC(C(=O)NC2CCc3ncnn3C2)CC1 (centres unmarked) [2-P20, 1-(prop-2-enoyl)-N-{5H,6H,7H,8H-[1,2,4]triazolo[1,5-a]pyridin-6-yl}piperidine-4-carboxamide]	98.1723
Cc1ccc(C)c(N2C(=O)C=CC2=O)c1 [10-F13, 1-(2,5-dimethylphenyl)-2,5-dihydro-1H-pyrrole-2,5-dione]	112.813
CC(C#N)CSc1ccccc1NC(=O)CCl (centres unmarked) [6-K16, 2-chloro-N-{2-[(2-cyano-2-methylethyl)sulfanyl]phenyl}acetamide]	101.756
COc1ccc(Cl)cc1C(O)CNC(=O)CCl (centres unmarked) [7-N06, 2-chloro-N-[2-(5-chloro-2-methoxyphenyl)-2-hydroxyethyl]acetamide]	93.5636
N#CC(=Cc1ccc(Oc2cnccn2)cc1)C(=O)NC1CCCC1 [9-F20, 2-cyano-N-cyclopentyl-3-[4-(pyrazin-2-yloxy)phenyl]prop-2-enamide]	95.2809
CC(Cl)C(=O)NCc1nnnn1CC1CC1 (centres unmarked) [6-F14, 2-chloro-N-{[1-(cyclopropylmethyl)-1H-1,2,3,4-tetrazol-5-yl]methyl}propanamide]	96.9756
C=CC(=O)NC1CC2CCC(C1)S2 (centres unmarked) [1-B06, N-{8-thiabicyclo[3.2.1]octan-3-yl}prop-2-enamide]	97.0549
C=CC(=O)NCc1nc(OC)cc(OC)n1 [2-M20, N-[(4,6-dimethoxypyrimidin-2-yl)methyl]prop-2-enamide]	103.046
COc1cc(OC)c(NC(=O)CCl)cc1Cl [4-G11, 2-chloro-N-(5-chloro-2,4-dimethoxyphenyl)acetamide]	97.1891
C=CC(=O)NCCN1CCn2nccc2C1 [3-F21, N-(2-{4H,5H,6H,7H-pyrazolo[1,5-a]pyrazin-5-yl}ethyl)prop-2-enamide]	140.357
CC(Cl)C(=O)N1CCN(C)C(c2nc(C3CC3)no2)C1 (centres unmarked) [7-I08, 2-chloro-1-[3-(3-cyclopropyl-1,2,4-oxadiazol-5-yl)-4-methylpiperazin-1-yl]propan-1-one]	77.865
Cc1ccc(C)c(-c2cc(NC(=O)CCl)n(-c3ccccc3)n2)c1 [4-M14, 2-chloro-N-[3-(2,5-dimethylphenyl)-1-phenyl-1H-pyrazol-5-yl]acetamide]	83.8495
CCC(c1cc(Cl)cc(Cl)c1)N(C)C(=O)CCl (centres unmarked) [7-L10, 2-chloro-N-[1-(3,5-dichlorophenyl)propyl]-N-methylacetamide]	75.0392
Cc1cc(C)c(NC(=O)C(C#N)=Cc2ccccc2)c(C)c1 [8-E19, 2-cyano-3-phenyl-N-(2,4,6-trimethylphenyl)prop-2-enamide]	71.3693
CCc1nc2c(s1)C(N(C)C(=O)C(C)Cl)CCC2 (centres unmarked) [7-N17, 2-chloro-N-(2-ethyl-4,5,6,7-tetrahydro-1,3-benzothiazol-7-yl)-N-methylpropanamide]	126.845
N#CC(=Cc1ccc([N+](=O)[O-])cc1)C(=O)Nc1ccc(Cl)cc1 [8-O11, N-(4-chlorophenyl)-2-cyano-3-(4-nitrophenyl)prop-2-enamide]	100.581
